One compound from patent publication US20250186386A1, “METHODS OF REDUCING THE NEED FOR PERIPHERAL ARTERIAL REVASCULARIZATION IN A STATIN-TREATED SUBJECT” (AMARIN PHARMACEUTICALS IRELAND LIMITED, priority 2018, published 2025) can be followed below.

A short description of this data set: REDUCE-IT: treatment-emergent adverse events of the safety population.

Regarding `CC/C=C\C/C=C\C/C=C\C/C=C\C/C=C\CCCC(=O)OCC` [AMR101, icosapent ethyl], the “Serious TEAE Leading to Withdrawal of Study Drug, %” value is “(2.2%)”.
